# In the supplement of paper PMC4604168 (melanoma cell lines):
# Some of the results follow. Many values rest on one well or one pass, so single values are uncertain.
# What was measured:
# Test in all cases: cell count relative to DMSO control; melanoma cells; higher = more viable cells
# Conditions in all cases: library dose: standard library concentration; 72 h
# G361 = test system: G361
# IPC-298 = test system: IPC-298
# IST-MEL1 = test system: IST-MEL1
# LB2518-MEL = test system: LB2518-MEL
# LOXIMVI = test system: LOXIMVI
# MEL-HO = test system: MEL-HO
# MZ2-MEL = test system: MZ2-MEL
# MeWo = test system: MeWo
# RPMI7951 = test system: RPMI7951
# RVH-421 = test system: RVH-421
# SkMel28 = test system: SkMel28
# SkMel2 = test system: SkMel2
# SkMel30 = test system: SkMel30
# SkMel5 = test system: SkMel5
# UACC257 = test system: UACC257
# UACC62 = test system: UACC62
# WM115 = test system: WM115
# WM1716 = test system: WM1716
# WM1745 = test system: WM1745
# WM3526 = test system: WM3526
# 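Note: cells treated in 1,536-well plates, then fixed and DAPI-stained, with nuclei counted from automated high-throughput microscope images.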
SMILES,cell count (G361),cell count (IPC-298),cell count (IST-MEL1),cell count (LB2518-MEL),cell count (LOXIMVI),cell count (MEL-HO),cell count (MZ2-MEL),cell count (MeWo),cell count (RPMI7951),cell count (RVH-421),cell count (SkMel28),cell count (SkMel2),cell count (SkMel30),cell count (SkMel5),cell count (UACC257),cell count (UACC62),cell count (WM115),cell count (WM1716),cell count (WM1745),cell count (WM3526)
"CS(=O)(=O)CCNCc1ccc(-c2ccc3ncnc(Nc4ccc(OCc5cccc(F)c5)c(Cl)c4)c3c2)o1 [lapatinib] + CC1(C)NC(=O)N(c2ccc([N+](=O)[O-])c(C(F)(F)F)c2)C1=O [nilutamide] (first compound 4 µM, partner dose 5 µM)",81.6%,98.4%,95.5%,108%,92.3%,89.1%,83.6%,72.2%,52.1%,80.8%,79.9%,82.7%,111%,69.3%,84.3%,63.4%,69.5%,86.9%,74.7%,84.3%
"C[C@@H](Oc1cc(-c2cnn(C3CCNCC3)c2)cnc1N)c1c(Cl)ccc(F)c1Cl [Crizotinib] + Cc1cc(N2CCOCC2)cc2[nH]c(-c3c(NC[C@@H](O)c4cccc(Cl)c4)cc[nH]c3=O)nc12 [BMS536924] (first compound 1 µM, partner dose 1 µM)",75.1%,98.7%,99.4%,86.6%,91.3%,99%,119%,73.1%,81.4%,75.2%,55.7%,82.6%,80.1%,52.7%,81.2%,75.5%,43.3%,101%,37.4%,68.6%
"C[C@@H](Oc1cc(-c2cnn(C3CCNCC3)c2)cnc1N)c1c(Cl)ccc(F)c1Cl [Crizotinib] + Nc1cccc2c1CN(C1CCC(=O)NC1=O)C2=O [lenalidomide] (first compound 1 µM, partner dose 5 µM)",114%,88.7%,103%,102%,163%,105%,111%,83%,105%,80.6%,52.8%,90.9%,128%,65.4%,92.1%,101%,74.5%,95.2%,76.8%,68.6%
"CNC(=O)c1cc(Oc2ccc(NC(=O)Nc3ccc(Cl)c(C(F)(F)F)c3)cc2)ccn1 [sorafenib] + Nc1cccc2c1CN(C1CCC(=O)NC1=O)C2=O [lenalidomide] (first compound 2 µM, partner dose 5 µM)",90.9%,92.1%,120%,92.2%,139%,102%,118%,115%,99.6%,108%,120%,101%,119%,95.6%,87.3%,105%,131%,123%,126%,107%
"CN1CCN(c2ccc3nc(-c4c(N)c5c(F)cccc5[nH]c4=O)[nH]c3c2)CC1 [Dovitinib] + C=C(c1ccc(C(=O)O)cc1)c1cc2c(cc1C)C(C)(C)CCC2(C)C [Bexarotene] (first compound 0.5 µM, partner dose 10 µM)",71.9%,65.6%,73.2%,67.1%,87%,70.3%,44%,59.7%,77.9%,108%,54.7%,58.1%,79.2%,66%,68.4%,80.9%,95.5%,83.6%,77.9%,75.6%
"C[C@@H](Oc1cc(-c2cnn(C3CCNCC3)c2)cnc1N)c1c(Cl)ccc(F)c1Cl [Crizotinib] + CO[C@@H]1[C@H](N(C)C(=O)c2ccccc2)C[C@H]2O[C@]1(C)n1c3ccccc3c3c4c(c5c6ccccc6n2c5c31)C(=O)NC4 [Midostaurin] (first compound 1 µM, partner dose 0.4 µM)",66.7%,71.3%,86.8%,57.6%,68%,69.3%,75.5%,50.4%,50.5%,27.2%,41%,60.6%,84.6%,46.9%,71.7%,57.7%,36.8%,40.6%,35%,63.2%
"CNC(=O)c1cc(Oc2ccc(NC(=O)Nc3ccc(Cl)c(C(F)(F)F)c3)cc2)ccn1 [sorafenib] + CC(C)(C)c1cnc(CSc2cnc(NC(=O)C3CCNCC3)s2)o1 [SNS-032] (first compound 2 µM, partner dose 0.05 µM)",102%,91.2%,95%,69.5%,79.4%,97.7%,90.6%,75.8%,20.9%,97.8%,68.2%,57.1%,84.8%,62.4%,82.7%,76.2%,67.4%,87.5%,54.6%,90.8%
"CN1CCN(c2ccc3nc(-c4c(N)c5c(F)cccc5[nH]c4=O)[nH]c3c2)CC1 [Dovitinib] + CS(=O)(=O)CCNCc1ccc(-c2ccc3ncnc(Nc4ccc(OCc5cccc(F)c5)c(Cl)c4)c3c2)o1 [lapatinib] (first compound 0.5 µM, partner dose 4 µM)",35%,67.7%,67.9%,48.9%,83.5%,57.3%,42.7%,42.4%,26.2%,100%,57.1%,75.3%,80.8%,43.8%,84.5%,35.1%,74.3%,79.1%,54.3%,66.2%
"C[C@@H](Oc1cc(-c2cnn(C3CCNCC3)c2)cnc1N)c1c(Cl)ccc(F)c1Cl [Crizotinib] + NCC(=O)Nc1ccc(-n2nc(C(F)(F)F)cc2-c2ccc3c(ccc4ccccc43)c2)cc1 [OSU03012] (first compound 1 µM, partner dose 5 µM)",76.3%,56.9%,86%,69.7%,72.8%,84%,98.9%,85.7%,69.7%,85.7%,23.7%,36.8%,28.9%,52%,94.8%,41.9%,65.1%,81.2%,51.1%,45.9%
"CS(=O)(=O)CCNCc1ccc(-c2ccc3ncnc(Nc4ccc(OCc5cccc(F)c5)c(Cl)c4)c3c2)o1 [lapatinib] + Cc1cc(N2CCOCC2)cc2[nH]c(-c3c(NC[C@@H](O)c4cccc(Cl)c4)cc[nH]c3=O)nc12 [BMS536924] (first compound 4 µM, partner dose 1 µM)",58%,82.8%,79.5%,74.4%,74.2%,73.2%,63.3%,69.7%,45.8%,77%,58.4%,69.6%,78.5%,41.2%,76.4%,65.9%,80.8%,80%,51.2%,60.2%
"C[C@@H](Oc1cc(-c2cnn(C3CCNCC3)c2)cnc1N)c1c(Cl)ccc(F)c1Cl [Crizotinib] + CS(=O)(=O)CCNCc1ccc(-c2ccc3ncnc(Nc4ccc(OCc5cccc(F)c5)c(Cl)c4)c3c2)o1 [lapatinib] (first compound 1 µM, partner dose 4 µM)",55.5%,74.7%,79.5%,47%,84.4%,69.7%,40.5%,75.5%,15.2%,92%,47.4%,72.3%,78.2%,48.7%,84.4%,49.7%,43%,62.6%,32.4%,70.6%
"CN1CCN(c2ccc3nc(-c4c(N)c5c(F)cccc5[nH]c4=O)[nH]c3c2)CC1 [Dovitinib] + COc1cc2c(Oc3ccc4[nH]c(C)cc4c3F)ncnc2cc1OCCCN1CCCC1 [cediranib] (first compound 0.5 µM, partner dose 2 µM)",36.4%,63.9%,63.6%,50.9%,72.5%,60.6%,40.5%,42.8%,63%,79.7%,54.6%,47%,71.6%,54.2%,68.3%,55.5%,63.8%,76.9%,32.4%,72.7%
"CN1CCN(c2ccc3nc(-c4c(N)c5c(F)cccc5[nH]c4=O)[nH]c3c2)CC1 [Dovitinib] + CN(NC(=O)CC(=O)NN(C)C(=S)c1ccccc1)C(=S)c1ccccc1 [STA4783] (first compound 0.5 µM, partner dose 0.03 µM)",28.9%,72.8%,48.1%,26%,57.5%,76.2%,61.8%,15.3%,76.7%,19.4%,33%,44.2%,73.5%,54.6%,82.3%,51.8%,24%,67.9%,25.3%,78.1%
"CS(=O)(=O)CCNCc1ccc(-c2ccc3ncnc(Nc4ccc(OCc5cccc(F)c5)c(Cl)c4)c3c2)o1 [lapatinib] + Cn1c(Nc2ccc(C(F)(F)F)cc2)nc2cc(Oc3ccnc(-c4ncc(C(F)(F)F)[nH]4)c3)ccc21 [CHIR265] (first compound 4 µM, partner dose 0.4 µM)",12.8%,44.5%,73%,37%,98%,58.4%,41.6%,57.5%,31.6%,39.3%,24.4%,33.3%,56.9%,22.7%,78.3%,14.8%,21.3%,48.5%,45.7%,28.4%
"C[C@@H](Oc1cc(-c2cnn(C3CCNCC3)c2)cnc1N)c1c(Cl)ccc(F)c1Cl [Crizotinib] + CC(C)(C)c1cnc(CSc2cnc(NC(=O)C3CCNCC3)s2)o1 [SNS-032] (first compound 1 µM, partner dose 0.05 µM)",103%,115%,85%,67.9%,99.9%,91.3%,103%,83.5%,20.9%,82%,49.8%,72%,91.9%,66.8%,72.7%,81.6%,50%,64.7%,69.9%,86.6%
"C[C@@H](Oc1cc(-c2cnn(C3CCNCC3)c2)cnc1N)c1c(Cl)ccc(F)c1Cl [Crizotinib] + Nc1ncn([C@H]2C[C@H](O)[C@@H](CO)O2)c(=O)n1 [decitabine] (first compound 1 µM, partner dose 0.5 µM)",76.2%,54.4%,79.3%,76.4%,119%,73.4%,73.1%,66.3%,104%,73.2%,70.7%,91.5%,77.7%,66.7%,85.7%,55.3%,65.5%,81.6%,73.2%,82.1%
